Reference: PMC9911399, “Two distinct binding modes provide the RNA-binding protein RbFox with extraordinary sequence specificity”
Positions count from the first letter of the chain named. The list shows a part of the results.

T1: RBFOX1 RRM (Homo sapiens, UniProt Q9NWB1 109-208)
T1 sequence: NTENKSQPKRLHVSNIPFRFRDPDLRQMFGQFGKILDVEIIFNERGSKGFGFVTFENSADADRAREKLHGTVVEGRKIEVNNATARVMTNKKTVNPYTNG

B1: CCACUAU (DNA:RNA)
RNA: GGGAGACCGGAAUUCAGAUUGUCCCCACUAUUUAAAUCCCGUCGUAGCCACCA
DNA 1: CAATCTGAATTCCGGTCTCCC
DNA 2: TGGTGGCTACGACGGGATT
B2: UGAAUGA (DNA:RNA)
RNA: B1 RNA with C25U, C26G, C28A, A30G, U31A
DNA 1: CAATCTGAATTCCGGTCTCCC
DNA 2: TGGTGGCTACGACGGGATT
B3: GAUACUU (DNA:RNA)
RNA: B1 RNA with C25G, C26A, A27U, C28A, U29C, A30U
DNA 1: CAATCTGAATTCCGGTCTCCC
DNA 2: TGGTGGCTACGACGGGATT
B4: UGGGAUC (DNA:RNA)
RNA: GGGAGACCGGAAUUCAGAUUGUCCUGGGAUCUUAAAUCCCGUCGUAGCCACCA
DNA 1: CAATCTGAATTCCGGTCTCCC
DNA 2: TGGTGGCTACGACGGGATT
B5: UGUAUUC (DNA:RNA)
RNA: B4 RNA with G27U, G28A, A29U
DNA 1: CAATCTGAATTCCGGTCTCCC
DNA 2: TGGTGGCTACGACGGGATT
B6: AUUAGGA (DNA:RNA)
RNA: GGGAGACCGGAAUUCAGAUUGUCCAUUAGGAUUAAAUCCCGUCGUAGCCACCA
DNA 1: CAATCTGAATTCCGGTCTCCC
DNA 2: TGGTGGCTACGACGGGATT
B7: AAUAGGU (DNA:RNA)
RNA: B6 RNA with U26A, A31U
DNA 1: CAATCTGAATTCCGGTCTCCC
DNA 2: TGGTGGCTACGACGGGATT
B8: ACGCUCG (DNA:RNA)
RNA: B1 RNA with C25A, A27G, A30C, U31G
DNA 1: CAATCTGAATTCCGGTCTCCC
DNA 2: TGGTGGCTACGACGGGATT
B9: GCUCGGG (DNA:RNA)
RNA: B6 RNA with A25G, U26C, A28C, A31G
DNA 1: CAATCTGAATTCCGGTCTCCC
DNA 2: TGGTGGCTACGACGGGATT
B10: GGCAGGC (DNA:RNA)
RNA: B6 RNA with A25G, U26G, U27C, A31C
DNA 1: CAATCTGAATTCCGGTCTCCC
DNA 2: TGGTGGCTACGACGGGATT
B11: UAUGUAU (DNA:RNA)
RNA: B1 RNA with C25U, C26A, A27U, C28G
DNA 1: CAATCTGAATTCCGGTCTCCC
DNA 2: TGGTGGCTACGACGGGATT
B12: CCUCGAC (DNA:RNA)
RNA: B1 RNA with A27U, U29G, U31C
DNA 1: CAATCTGAATTCCGGTCTCCC
DNA 2: TGGTGGCTACGACGGGATT
B13: CGUUGCC (DNA:RNA)
RNA: B6 RNA with A25C, U26G, A28U, G30C, A31C
DNA 1: CAATCTGAATTCCGGTCTCCC
DNA 2: TGGTGGCTACGACGGGATT
B14: AUAACCG (DNA:RNA)
RNA: B6 RNA with U27A, G29C, G30C, A31G
DNA 1: CAATCTGAATTCCGGTCTCCC
DNA 2: TGGTGGCTACGACGGGATT
B15: AUUUAAU (DNA:RNA)
RNA: B6 RNA with A28U, G29A, G30A, A31U
DNA 1: CAATCTGAATTCCGGTCTCCC
DNA 2: TGGTGGCTACGACGGGATT
B16: CGGGGGG (DNA:RNA)
RNA: B4 RNA with U25C, A29G, U30G, C31G
DNA 1: CAATCTGAATTCCGGTCTCCC
DNA 2: TGGTGGCTACGACGGGATT
B17: CAUACCG (DNA:RNA)
RNA: B6 RNA with A25C, U26A, G29C, G30C, A31G
DNA 1: CAATCTGAATTCCGGTCTCCC
DNA 2: TGGTGGCTACGACGGGATT
B18: GUGCCCU (DNA:RNA)
RNA: B1 RNA with C25G, C26U, A27G, U29C, A30C
DNA 1: CAATCTGAATTCCGGTCTCCC
DNA 2: TGGTGGCTACGACGGGATT
B19: CAGGCCC (DNA:RNA)
RNA: B4 RNA with U25C, G26A, A29C, U30C
DNA 1: CAATCTGAATTCCGGTCTCCC
DNA 2: TGGTGGCTACGACGGGATT
B20: GCGGAAC (DNA:RNA)
RNA: B4 RNA with U25G, G26C, U30A
DNA 1: CAATCTGAATTCCGGTCTCCC
DNA 2: TGGTGGCTACGACGGGATT
B21: CAUCUAC (DNA:RNA)
RNA: B1 RNA with C26A, A27U, U31C
DNA 1: CAATCTGAATTCCGGTCTCCC
DNA 2: TGGTGGCTACGACGGGATT
B22: AACUUGA (DNA:RNA)
RNA: B6 RNA with U26A, U27C, A28U, G29U
DNA 1: CAATCTGAATTCCGGTCTCCC
DNA 2: TGGTGGCTACGACGGGATT
B23: AUGGUCU (DNA:RNA)
RNA: B6 RNA with U27G, A28G, G29U, G30C, A31U
DNA 1: CAATCTGAATTCCGGTCTCCC
DNA 2: TGGTGGCTACGACGGGATT
B24: UAGAGCG (DNA:RNA)
RNA: B6 RNA with A25U, U26A, U27G, G30C, A31G
DNA 1: CAATCTGAATTCCGGTCTCCC
DNA 2: TGGTGGCTACGACGGGATT
B25: CAACUAC (DNA:RNA)
RNA: B1 RNA with C26A, U31C
DNA 1: CAATCTGAATTCCGGTCTCCC
DNA 2: TGGTGGCTACGACGGGATT
B26: UUAGACG (DNA:RNA)
RNA: B4 RNA with G26U, G27A, U30C, C31G
DNA 1: CAATCTGAATTCCGGTCTCCC
DNA 2: TGGTGGCTACGACGGGATT
B27: UUCUAUG (DNA:RNA)
RNA: B4 RNA with G26U, G27C, G28U, C31G
DNA 1: CAATCTGAATTCCGGTCTCCC
DNA 2: TGGTGGCTACGACGGGATT
B28: GAUAUGC (DNA:RNA)
RNA: B6 RNA with A25G, U26A, G29U, A31C
DNA 1: CAATCTGAATTCCGGTCTCCC
DNA 2: TGGTGGCTACGACGGGATT
B29: UCUAGUG (DNA:RNA)
RNA: B6 RNA with A25U, U26C, G30U, A31G
DNA 1: CAATCTGAATTCCGGTCTCCC
DNA 2: TGGTGGCTACGACGGGATT
B30: UCCGGGU (DNA:RNA)
RNA: B6 RNA with A25U, U26C, U27C, A28G, A31U
DNA 1: CAATCTGAATTCCGGTCTCCC
DNA 2: TGGTGGCTACGACGGGATT
B31: UCCAAUU (DNA:RNA)
RNA: B4 RNA with G26C, G27C, G28A, C31U
DNA 1: CAATCTGAATTCCGGTCTCCC
DNA 2: TGGTGGCTACGACGGGATT

These binders were tested against T1, RBFOX1 RRM (assay: EMSA; HiTS-Eq, 1 nM pool, 10 min; buffer printed only for the single-RNA assays: 10 mM Tris pH 7.5, 150 mM NaCl, 3.4 mM EDTA, 0.001% NP-40, 30 C). Conditions: tags: His6 N-terminal (pET28a); label: 5' 32P.
Summary of the method: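 These values rest on relative association constants, computed from read-count changes of each RNA species versus the control reaction and normalised to the cognate motif. Reads came from free RNA recovered by 8% native PAGE after purified RbFox RRM (wild type or mutant) at increasing concentrations was equilibrated for 10 min in 50 µL with 1 nM of a 5′-radiolabelled pool with 7 randomized nucleotides and DNA-annealed flanks.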

Binder | binding signal
B1 | 0.00428 KA relative to UGCAUGU
B2 | 0.0319 KA relative to UGCAUGU
B3 | 0.00562 KA relative to UGCAUGU
B4 | 0.0286 KA relative to UGCAUGU
B5 | 0.0153 KA relative to UGCAUGU
B6 | 0.0014 KA relative to UGCAUGU
B7 | 0.00549 KA relative to UGCAUGU
B8 | 0.0146 KA relative to UGCAUGU
B9 | 0.0176 KA relative to UGCAUGU
B10 | 0.0103 KA relative to UGCAUGU
B11 | 0.0166 KA relative to UGCAUGU
B12 | 0.00479 KA relative to UGCAUGU
B13 | 0.014 KA relative to UGCAUGU
B14 | 0.000312 KA relative to UGCAUGU
B15 | 0.00361 KA relative to UGCAUGU
B16 | 0.0136 KA relative to UGCAUGU

Binder | binding signal
B17 | 0.000194 KA relative to UGCAUGU
B18 | 0.00968 KA relative to UGCAUGU
B19 | 0.00671 KA relative to UGCAUGU
B20 | 0.0146 KA relative to UGCAUGU
B21 | 0.00128 KA relative to UGCAUGU
B22 | 0.00741 KA relative to UGCAUGU
B23 | 0.0168 KA relative to UGCAUGU
B24 | 0.0165 KA relative to UGCAUGU
B25 | 0.000393 KA relative to UGCAUGU
B26 | 0.00752 KA relative to UGCAUGU
B27 | 0.0108 KA relative to UGCAUGU
B28 | 0.0126 KA relative to UGCAUGU
B29 | 0.0133 KA relative to UGCAUGU
B30 | 0.00411 KA relative to UGCAUGU
B31 | 0.0006 KA relative to UGCAUGU
